The IC50 comes from the fitted curve, where viability falls to half of the control; a limit (>, <) means that the fit lies beyond the doses tested. AUC sums up the same curve from the lowest dose to the 256-fold higher top dose; it is 1 without any effect and falls as sensitivity rises. The top dose, if marked as inferred, comes from the curve model; the source does not state it.

Experimental findings from the supplement of paper PMC4967469 are described below.

Compound in one assay: CN(C)CCOc1ccc(-c2nc(-c3ccncc3)c(-c3ccc4c(c3)CC/C4=N\O)[nH]2)cc1 [SB590885]
As to the kind of experiment: Viability of human cancer cell lines after 72 h of drug (GDSC screen). To be noted: top dose 5 µM; top dose inferred. On the procedure: (§1)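 Human cancer cell lines in 384-well plates, medium with 10% serum, drug for 72 h over a 256-fold dose range (nine 2-fold or five 4-fold steps up to the top dose). Adherent lines were fixed and stained with the nucleic acid dye Syto60, suspension lines read with resazurin; signal relative to control wells, capped at 0 and 100%. One two-parameter sigmoid per drug and line, fitted in a mixed model over all curves with the slope shared within a line.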

Compound in another assay: CCN(CC)CCCCNc1ncc2cc(-c3cc(OC)cc(OC)c3)c(NC(=O)NC(C)(C)C)nc2n1 [PD-173074]
The description is as above. The conditions noted are these: top dose 2 µM; top dose inferred. Here is the method:
as §1

For the cell line SK-GT-4 (oesophagus, adherent), the AUC was found to be 0.947 with SB590885 and 0.957 in the assay with PD-173074. Also, the concentration for half-maximal inhibition (IC50) in the assay with SB590885 was more than 5 µM; in the assay with PD-173074, more than 2 µM.
On the same counts, the results for SK-HEP-1 (liver, adherent) are 0.949, 0.989, more than 5 µM and more than 2 µM.
Consider SK-LU-1 (lung adenocarcinoma, adherent), for which, in the assay with SB590885, the AUC came out at 0.979 and the IC50 is more than 5 µM. In the assay with PD-173074, the AUC came out at 0.913 and the IC50 was more than 2 µM.
On the same counts, the results for SK-MEL-3 (melanoma, adherent) are 0.784, 2.5 µM, 0.984 and more than 2 µM.
On to SK-MEL-5 (melanoma, adherent), for which, in the assay with SB590885, the AUC turned out to be 0.743 and the IC50 was 1.85 µM. Besides, in the assay with PD-173074, the AUC came to 0.981 and the IC50 was more than 2 µM.
On the same counts, the results for SK-MEL-31 (melanoma, adherent) are 0.985, more than 5 µM, 0.985 and more than 2 µM.
“SK-MES-1 (lung squamous cell carcinoma, adherent)”: in the assay with SB590885, the AUC came to 0.979 and the IC50 is more than 5 µM. In the assay with PD-173074, the AUC is 0.972 and the IC50 is more than 2 µM.
On the same counts, the results for SK-MG-1 (glioma, adherent) are 0.956, more than 5 µM, 0.984 and more than 2 µM.
On the same counts, the results for SK-N-AS (neuroblastoma, adherent) are 0.949, more than 5 µM, 0.982 and more than 2 µM.
On the same counts, the results for SK-N-SH (neuroblastoma, adherent) are 0.986, more than 5 µM, 0.974 and more than 2 µM.
As to SK-OV-3 (ovary, adherent), in the assay with SB590885, the AUC was 0.981 and the IC50 was more than 5 µM. In the assay with PD-173074, the AUC worked out at 0.981 and the 50% inhibitory concentration (IC50) was more than 2 µM.
SKG-IIIa (cervix, adherent): in the assay with SB590885, the AUC was determined as 0.983 and the half-maximal inhibitory concentration (IC50) was more than 5 µM. In addition, in the assay with PD-173074, the AUC was found to be 0.983 and the half-inhibitory concentration (IC50) is more than 2 µM.
As for SKN (uterus, adherent), in the assay with SB590885, the AUC was 0.974 and the half-inhibitory concentration (IC50) was more than 5 µM. In the assay with PD-173074, the AUC was determined as 0.861 and the IC50 is more than 2 µM.
On the same counts, the results for SKN-3 (head and neck, adherent) are 0.947, more than 5 µM, 0.913 and more than 2 µM.
As for SNU-61 (large intestine, adherent), in the assay with SB590885, the AUC stood at 0.983 and the half-inhibitory concentration (IC50) was more than 5 µM. In the assay with PD-173074, the AUC is 0.983 and the IC50 was more than 2 µM.
For the cell line SNU-81 (large intestine, adherent), the AUC in the assay with SB590885 came out at 0.974; with PD-173074, 0.978. The IC50 with SB590885 is more than 5 µM; with PD-173074, more than 2 µM.
On the same counts, the results for SNU-182 (liver, adherent) are 0.986, 0.986, more than 5 µM and more than 2 µM.
On the same counts, the results for SNU-387 (liver, adherent) are 0.984, 0.984, more than 5 µM and more than 2 µM.
On the same counts, the results for SNU-407 (large intestine, adherent) are 0.983, 0.983, more than 5 µM and more than 2 µM.
As for SNU-423 (liver, adherent), the AUC with SB590885 worked out at 0.983; with PD-173074 it was 0.982. Also, the IC50 was more than 5 µM in the assay with SB590885 and more than 2 µM with PD-173074.
On the same counts, the results for SNU-449 (liver, adherent) are 0.986, 0.978, more than 5 µM and more than 2 µM.
On the same counts, the results for SNU-C2B (large intestine, adherent) are 0.979, 0.976, more than 5 µM and more than 2 µM.
For the cell line SNU-C5 (large intestine, adherent), the AUC with SB590885 worked out at 0.962; in the assay with PD-173074, 0.986. The IC50 in the assay with SB590885 is more than 5 µM; with PD-173074, more than 2 µM.
On the same counts, the results for STS-0421 (soft tissue, adherent) are 0.983, 0.484, more than 5 µM and 0.113 µM.

For orientation: IC50 means the concentration at which inhibition is half-maximal.
